Measurements reported in PubChem BioAssay AID1508624 (National Center for Advancing Translational Sciences (NCATS), 2021).
The campaign covered roughly 48,000 compounds. About 120 (0.25%) were called active. Inconclusive results (about 4%) are left out. Calls come from the whole dose curve; as a rule, active = well fitted activation curve with a large enough effect; inconclusive = small, poorly fitted or top-dose-only effect, or another doubt; inactive = no such curve, though single readings can be large or run the other way. Some of the results follow.

Assay: Primary qHTS for Identification of Small Molecule Activators of Huntingtin-Antisense Promoter Activity; note: nearly all actives have a fitted effect of over 55% in size
Conditions: HEK293 HTT-AS promoter firefly luciferase reporter, 24 h; series mostly up to 57.5 µM; activity change, positive = activation: at the top concentration
Procedure, shortened: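 HEK293 Fluc reporter, 2,500 cells/well, 24 h pre-culture; cpds up to 57.5 uM final, 24 h 37 degrees C; Dual-Glo, 10 min RT; normalized vehicle = 0%, zero RLU = -100%.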

Activity change, positive = activation, inactive:
COc1cc2c(cc1OC)C(COc1ccc(F)cc1)N(C(=O)Cc1ccc(F)cc1)CC2 (stereo unspecified) -23.2%
Cc1ccc(Nc2c(-c3ccncc3)nc3ccc(C)cn23)cc1 1.18%
CCOc1ccc(OCC)c(S(=O)(=O)N2CCN(c3cccc(C)c3C)CC2)c1 0.333%
CCOC(=O)C1CCN(c2ncnc3c2nnn3C)CC1 5.27%
Cc1ccc(CN(C(=O)COc2cccc([N+](=O)[O-])c2)c2ccccn2)cc1 -20.6%
CC(C)NC(=O)c1ccc(-n2c(-c3ccccc3)cc3c2CCCCC3)cc1 10.6%
COc1ccc(Cl)cc1NC(=O)Cn1cc(C(=O)c2ccncc2)c(=O)c2cc(C)ccc21 -2.07%
Nc1ncc(S(=O)(=O)NCc2ccc(Cl)cc2)cn1 -5.01%
CCC(Sc1nc2cc(OC)c(OC)cc2c(=O)n1CCc1ccc(Cl)cc1)C(=O)NCCOC (stereo unspecified) -1.56%
COc1cc2nc(SCc3cccc(Cl)c3)n3nc(CCn4nc(C)cc4C)nc3c2cc1OC 21.8%
CCOc1ccc(-c2cc(OC(=O)c3ccccc3)c3c(C)oc(C)c3c(=O)c2)cc1 -20.9%
Cn1nnc2c(N3CCN(c4ccccc4F)CC3)ncnc21 37.3%
O=C(CSc1nc2ccccc2n1Cc1ccccc1F)NCc1ccccc1 -17.7%
Cc1ccccc1C(=O)Nc1cccc(C(=O)OCc2cc(=O)n3c4c(sc3n2)CCCC4)c1 -2.02%
COc1cccc(-c2cc(C(=O)Nc3cc(OC)c(OC)c(OC)c3)on2)c1 -25.8%
COc1cccc2c1cc1c(=O)n(CC(=O)N3CCN(c4cc(Cl)ccc4C)CC3)nc(C)n12 -1.99%
COc1ccc(-c2nc(Cn3c(SCc4ccc(C)cc4)nc4cccnc43)c(C)o2)cc1OC -14.1%
O=C(CCCn1c(=O)c2cccn2c2cccnc21)NCc1ccc(F)cc1 -0.358%
CCC1CCCCN1CC(=O)N1CCCc2c1c(=O)oc1ccc(OCc3ccccc3)cc21 (stereo unspecified) -49.5%
CCN1CCN(c2ccc(NS(=O)(=O)c3c(C)nc4sccn4c3=O)cc2Cl)CC1 -45.4%
COc1ccc(CNC(=O)CCC(=O)N2CCSc3ccccc32)cc1 -2.24%
CCOc1ccc(-n2c(C)nc3cc(C(=O)NCCC4=CCCCC4)ccc32)cc1 -4.13%
CCCC1OC2C[C@@H]3[C@H]4CCC5=CC(=O)C=C[C@]5(C)[C@H]4C(O)C[C@]3(C)[C@]2(C(=O)CO)O1 (stereo partly specified) -13.8%
CCOC(=O)c1ccc(NC(=O)C2=C(C)Nc3nc(SCc4ccc(Cl)cc4)nn3C2c2ccc(OC)cc2)cc1 (stereo unspecified) -10%
COc1ccc(-c2nnc(SCC(=O)Nc3ccc(Cl)cc3)s2)cc1 -69.9%
Cc1cc(C)cc(N2CCn3c2nc2c3c(=O)n(Cc3ccc(Cl)cc3)c(=O)n2C)c1 -17.1%
CCCS(=O)(=O)c1ncc(Cl)c(C(=O)Nc2scc(-c3ccccc3)c2C(=O)OCC)n1 -93.9%
CC(=O)N[C@@H](CCC(=O)O)C(=O)O -1.57%
O=S(=O)(c1ccccc1)c1nc(-c2ccc(Cl)cc2Cl)oc1N1CCCCCC1 8.62%
CN(C)CCC[C@@]1(c2ccc(F)cc2)OCc2cc(C#N)ccc21 -8.43%
COc1ccc(CNC(=O)Cn2nnc(-c3ccc(S(C)(=O)=O)cc3)n2)cc1 -10.6%
CCOC(=O)c1cccc(NC(=O)C2CCN(S(=O)(=O)c3ccc4c(c3)oc(=O)n4C)CC2)c1 -33.3%
COc1ccc(S(=O)(=O)N(CCc2ccccc2)CC(=O)Nc2cccc(OC)c2)cc1 -21.3%
COc1ccccc1N1CCN(c2ncnc3c2cnn3C)CC1 8.87%
CCc1ccc(C(=O)COC(=O)C(Cc2c[nH]c3ccccc23)NC(=O)c2ccc(Br)cc2)cc1 (stereo unspecified) 7.71%
CCOc1ccc(C2c3cc(OCC)c(OCC)cc3CC(=O)N2c2ccc(C(=O)O)cc2)cc1OCC (stereo unspecified) -1.21% [at 11.5 µM, percent change from vehicle, -100% = no light]
CCc1cccc(C)c1NC(=O)Cn1ccn(-c2ccc(F)cc2)c(=O)c1=O -4.23%
Cc1nc2ccc(S(=O)(=O)N(C)CC(=O)Nc3ccc(Br)c(C)c3)cc2s1 -38%
CCOc1ccc(C2CC(=O)c3c([nH]c(C(=O)OCc4ccccc4)c3C)C2)cc1 (stereo unspecified) -16.5%
COc1ccc(CCN2C(=O)c3oc4ccc(F)cc4c(=O)c3C2c2ccc(C(C)(C)C)cc2)cc1 (stereo unspecified) -12.2%
Cc1ccccc1NS(=O)(=O)c1ccc(Br)s1 -24.4%
CN(Cc1ccccc1)S(=O)(=O)c1ccc(F)c(C(=O)Nc2cccc(Cl)c2Cl)c1 -4.92%
CCN(CC)c1cc2c(cc1F)c(=O)c(S(=O)(=O)c1cc(C)ccc1C)cn2Cc1ccccc1 -8.81%
Cc1cccc(CC2C(=O)Nc3ccccc32)c1 (stereo unspecified) -28.8%
Cc1c(/C=C(\C#N)C(=O)Nc2cccc(Cl)c2)c2ccccc2n1Cc1ccccc1Cl -11.4%
CCOC(=O)c1c(NC(=O)c2ccc(S(=O)(=O)N(CCOC)CCOC)cc2)sc2c1CC(C)(C)NC2(C)C -10%
CN1CCCC(n2nc(Cc3ccc(Cl)cc3)c3ccccc3c2=O)CC1 (stereo unspecified) -4.98%
Cc1c(Cl)cccc1NC(=O)CN1C(=O)COc2ccc(S(=O)(=O)Nc3ccccc3)cc21 -29.4%
CCCOC(=O)CSc1nnc2ccc3ccccc3n12 4.71%
O=C(CSc1nc2ccccc2nc1Cc1ccccc1)Nc1ccc2c(c1)OCO2 -3.29%
COc1ccc(NC(=O)c2ccc3c(c2)CCN3S(=O)(=O)c2ccc(C)cc2)cc1Cl -4.09%
CCOC(=O)c1cccc(NC(=O)C(C)n2c(C)c3cnn(-c4ccccc4)c(=O)c3c2C)c1 (stereo unspecified) -28.8%
Cc1ccc(NC(=O)CN(C)S(=O)(=O)c2ccc3nc(C)sc3c2)c(C)c1 -12.4%
CC(C)NS(=O)(=O)c1ccc2nc(NC(=O)c3cncc(Br)c3)sc2c1 -16.7%
COc1ccc(Cl)cc1NC(=O)CCc1c(C)nc2c(c1C)c(=O)n(C)c(=O)n2C -12.7%
FC(F)(F)C(F)(F)C(F)(F)C(F)(F)C(F)(F)C(F)(F)C(F)(F)C(F)(F)Br -0.918%
COc1cc(NC(=O)CSc2nc3nc(C)c(Cc4ccc(C)cc4)c(C)n3n2)cc(OC)c1 -14.9%
CCCSCCCNC(=O)c1ccc(Cn2c(=O)c3cccn3c3cccnc32)cc1 -5.46%
COc1ccc(C(=O)CN2C(=O)N(c3ccc(C(C)=O)cc3)S(=O)(=O)c3ccccc32)cc1 -28.4%
CCOC(=O)N1CCc2c(sc3c2c(=O)n(CCc2ccccc2)c(=O)n3Cc2ccc(F)cc2)C1 -37.2%
O=C(CSc1nc(-c2ccccc2)no1)N1CCCCC1 -4.02%
Cc1ccccc1-c1nn2c(=O)cc(CN3CCN(C(=O)c4ccc(C(C)(C)C)cc4)CC3)nc2s1 -6.74%
Cc1ccc(Cn2nnc(C(=O)Nc3ccc(F)c(F)c3)c2N)cc1 -3.93% [at 11.5 µM, percent change from vehicle, -100% = no light]
COc1ccc(S(=O)(=O)N2CCC(n3c(C(F)(F)F)nc4cccnc43)CC2)cc1OC -4.96% [at 11.5 µM, percent change from vehicle, -100% = no light]
CCOc1ccccc1-n1cc2c(c1-c1ccc(OC)cc1)c(=O)n(C)c(=O)n2C -12.7%
Cc1ccc(N(C)C(=O)C2CCN(S(=O)(=O)c3ccc4c(c3)CCCN4C(=O)C3CCC3)CC2)cc1 3.98%
O=C1CC(c2ccccc2)Cc2[nH]c(=O)c(C(=O)Nc3cccc(Cl)c3)cc21 (stereo unspecified) -2.21%
COC(=O)c1ccc(NC(=O)CN2CCN(c3ccc(Cl)cc3)CC2)cc1 -18.1%
COc1ccc(NC(=O)c2cn(-c3ccccc3)nc2-c2ccc(C)cc2)cc1 7.31%
CCOc1ccc(NC(=O)CSc2nnc(NC(=O)Nc3ccccc3)s2)cc1 1.59%
CCOc1ccc(-c2nonc2NC(=O)COc2ccc(C)c(C)c2)cc1OCC -1.89%
COc1ccc(-c2nn(C)c3sc(C(=O)N4CCN(c5cc(Cl)ccc5C)CC4)cc23)cc1OC -43.6%
O=C(c1ccc2c(c1)N(Cc1cccc(Cl)c1)C(=O)c1ccccc1S2(=O)=O)N1CCN(c2cccc(C(F)(F)F)c2)CC1 -14.5%
CCOc1ccc(-c2cnc(NCc3cccc(Cl)c3)n2C)cc1 -9.33%
COc1ccc(C(=O)CCC(=O)Nc2cccc(C(C)=O)c2)cc1 -3.78%
COc1ccc(CCNC(=O)Cn2c(=O)c3cccn3c3ccc(F)cc32)cc1OC -7.79%
Cc1ccc(Cn2c(=O)n(Cc3ccc(Cl)cc3)c(=O)c3cccnc32)cc1 -13.2%
CCC(=O)N1CCc2cc(S(=O)(=O)CCC(=O)N3CCN(c4ccccc4F)CC3)ccc21 -5.29%
Cc1ccc(CNC(=O)c2cc3sccc3n2Cc2ccc(F)cc2)cc1 -19%
Cc1cc2oc(C(=O)Nc3nc(-c4ccccc4)ns3)c(C)c2cc1Cl 3.02%
Cc1ccc(NC(=O)CN2C(=O)CCc3cc(S(=O)(=O)N4CCOCC4)ccc32)c(C)c1 -5.53%
CCOc1ccc(CNC(=O)c2sc3nc(C)cc(C)c3c2-n2cccc2)cc1 13%
CN1CCN(C(CNC(=O)C(=O)Nc2ccc(F)cc2)c2cccnc2)CC1 (stereo unspecified) 30%
CCC(CC)C(=O)N1CCc2cc(OC)c(OC)cc2C1COc1ccccc1OC (stereo unspecified) -20.4%
Cc1ccc(C)c(Cn2nnc(C(=O)NCc3ccccc3)c2N)c1 -14.7%
CN1CCN(CCCN2c3ccccc3Sc3ccc(Cl)cc32)CC1
CCN(c1ccccc1)c1cc(NC)[n+](C)c(C)n1 -7.55%
CCCOc1ccc(-c2cccc(NS(=O)(=O)c3cc(OC)ccc3OC)c2)nn1 -21.5%
O=C(NCc1ccc(Cl)cc1)c1cnc2sc(N3CCCCCC3)nn2c1=O -0.786%
CCN(CC)c1ccc(NC(=O)c2cnn3c(C(F)F)cc(-c4ccccc4)nc23)cc1 -2.62%
COc1ccc(Cl)cc1NC(=O)C1CCN(c2ncnc3c2nc2n3CCCCC2)CC1 -10.3%
